Laboratory results reported in PubChem BioAssay AID652106 (National Center for Advancing Translational Sciences (NCATS), 2013).
In all, about 370,000 compounds went through this assay and about 500 (0.14%) were called active. Inconclusive means that the source gave no clear call. Such entries were picked first, then a sample of the others. The call rests on the fitted dose curve; in most records, active means well fitted activation curve with a large enough effect; inconclusive means small, poorly fitted or top-dose-only effect; inactive means no such curve, though single readings can be large or run the other way. A potency beside an inconclusive call is a rough fit, not a confirmed value.

experiment: qHTS of alpha-syn Inhibitors; settings: Yeast expressing alpha-synuclein, BacTiter-Glo, 24 h; Potency: growth rescue unless noted; growth rescue (activation): at 46.1 µM (top of the series) unless noted; further: nearly all actives have a fitted effect of over 65% in size; on growth rescue (activation): % of control where 0% means no effect
Outline: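 Screening used galactose-induced yeast with toxic alpha-synuclein levels, exposed to compound for 24 hr at 30 deg C. Cell growth, read with BacTiter-Glo luminescence, gave the measured signal.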
Potency means the concentration at half of the fitted maximal effect; tags describe the fitted curve by direction and shape.

Growth rescue (activation), inconclusive:
CC1(Cc2ccc(Cl)s2)C(=O)Nc2c(Cl)ccc(Cl)c21 (stereo not given) -66% [activator]

Growth rescue (activation), inactive:
CNc1ncnc2c1ncn2[C@H]1C[C@H](OP(=O)(O)O)[C@@H](COP(=O)(O)O)O1 -6.11%
Cc1cc(NC(=O)c2cc(-c3ccc(C)s3)nc3ccccc23)no1 4.95%
Cc1ccc(C)c(Nc2nc(NCc3ccco3)nc3nccnc23)c1 -1.21%
CC(=O)c1ccc(OC2(C)CCN(Cc3csc4ccccc34)C2)cc1 (stereo not given) 3.89%
COc1ccc(-c2noc(=O)n2Cc2cc(C)ccc2C)cc1 29.8%
COc1ccc(-c2n[nH]c3c2CN(C(=O)c2ccc(OC)c(OC)c2)CC3)cc1 -4.93%
CN(C(=O)CSc1nnc(-c2ccco2)n1N)C1CCCCC1 -0.861%
Clc1cccc(-c2nc3ccc(Cl)cn3c2Cc2ccsc2)c1 0%
CCOC1=C2CN(S(=O)(=O)c3ccc(C)cc3)[C@H](c3ccccc3)C[C@H]2[C@H]2C(=O)N(c3ccccc3)C(=O)[C@H]2C1 1.96%
C#CC(c1ccccc1)(c1ccccc1)n1ccnc1 6.08%
O=C(NCCc1ccc(F)cc1)c1cc(=O)c2ccccc2o1 14%
CCN1CCN(c2ncnc3scc(-c4ccc(OC)cc4)c23)CC1 -1.78%
Cc1onc(-c2ccccc2Cl)c1C(=O)Nc1ccccc1 -2.52%
CC(=O)C1=C(C)N2CCN=C2S1 -0.316%
CC(=O)Nc1ccc(C(=O)COC(=O)CCc2ccccc2)c(F)c1 -9.71%
c1ccc(C[n+]2csc3ccccc32)cc1 -12.9%
Cc1ccc(NC(=O)C2CC(=O)N(c3ccc4c5c(cccc35)CC4)C2)cc1 (stereo not given) 13.9%
Cc1c(Cl)ccc2sc(N3CCN(C(=O)C4=COCCO4)CC3)nc12 8.02%
Cc1noc(C)c1NC(=O)N(C)C[C@H]1OCc2cn(nn2)CCCC(=O)N([C@@H](C)CO)C[C@@H]1C -0.272%
CCOC(=O)c1ccc(NC2=CC(c3ccc(OCC)cc3)N(c3ccc(C(=O)OCC)cc3)C2=O)cc1 (stereo not given) 5.01%
O=C(COc1ccccc1C(=O)Nc1cccc(F)c1)Nc1ccc(Br)cc1 -1.27%
O=C(Nc1nnc(-c2ccncc2)o1)c1ccccc1 13.3%
Cc1cccc2cc(CN(Cc3nnnn3C3CCCCC3)C3CCCC3)c3nnnn3c12 12.9%
Clc1ccccc1OCCCCN1CCCC1 -2.87%
CCOc1cc(/C=N/NC(=O)c2ccccc2OCc2ccc(F)cc2)ccc1O -7.39%
COc1ccccc1NC(=O)Oc1cccc(OC(=O)c2ccccc2)c1 0.781%
C=CCc1cccc(CNc2ccc(Br)cc2)c1O 17.2%
COc1ccc(C(=O)Nc2ccc3c(c2)OCCO3)cc1Br -3.4%
Cc1c(NC(=O)C(=O)/C=C(/O)c2ccccc2)c(=O)n(-c2ccccc2)n1C 11.2%
O=C(Nc1nc(-c2ccc(Cl)cc2)cs1)C1=COCCO1 -8.97%
Cc1ccc(-c2nc(C)c(CCNC(=O)c3cccs3)s2)cc1 -19.3%
Cc1cc(C)c(S(=O)(=O)c2ccccc2)c(OC(=O)c2c(F)cccc2F)n1 0.911%

Potency, inconclusive:
Cc1noc(C)c1NC(=O)N(C)C[C@H]1OCCCC[C@@H](C)Oc2ccc(NC(=O)Nc3ccc(F)cc3)cc2C(=O)N([C@@H](C)CO)C[C@H]1C 35.5 µM [activator, single point]
COC(=O)c1nn(-c2cccc(C(F)(F)F)c2)ccc1=O 35.5 µM [activator, single point]
CCOC(=O)c1ccc(NC(=S)N2CCN(C)CC2)cc1 25.1 µM [activator, single point]
COc1ccc(C=CC(=O)c2ccc(OC)c(OC)c2O)cc1OC 35.5 µM [activator, single point]
COc1ccc(CCNC(=O)c2cnc3scc(C)n3c2=O)cc1OC 35.5 µM [activator, single point]
COC(=O)c1ccsc1NC(=O)CCS(=O)(=O)c1ccccc1 3.55 µM [activator, single point]
CCOc1ccc(NC(=O)CSc2nc3c(c(=O)n2-c2ccccc2OC)SCC3)cc1 31.6 µM [activator, single point]
O=S(=O)(c1ccc(Cl)cc1)N1CCN(Cc2ccc(O)c3ncccc23)CC1 31.6 µM [activator, single point]
O=C(C(=O)N1CCC(c2ccccc2)CC1)c1cccc([N+](=O)[O-])c1 3.16 µM [activator, single point]
Cc1cc2c(cc1Cl)N(C(=O)Nc1ccc(Oc3cccnc3C)nc1)CC2 29.1 µM [activator, single point]
CC(C)C(=O)NC(c1ccc(N(C)C)cc1)c1ccc2cccnc2c1O (stereo not given) 31.6 µM [activator, single point]
O=C(C[C@@H]1C[C@H]2c3cc(NC(=O)Nc4ccccc4F)ccc3O[C@H]2[C@H](CO)O1)NCC(F)(F)F 35.5 µM [activator, single point]
O=S1(=O)CC(N2CCCCC2)CN1C1CCCCC1 (stereo not given) 35.5 µM [activator, single point]
O=S(=O)(Nc1nc2ccccc2nc1NCC1CCCO1)c1cccc(Cl)c1 (stereo not given) 17.8 µM [activator, single point]
Cc1ccc(S(=O)(=O)c2cc(Nc3ccccc3)ccc2O)cc1 20 µM [activator, single point]
CN(Cc1cccnc1)C(=O)CC1C(=O)NCCN1Cc1ccc(-c2ccccc2)cc1 (stereo not given) 6.31 µM [activator, single point]
CCOC(=O)N1CCN(C(=O)C[C@@H]2C[C@@]3(C(=O)OCC)CCCC=C3N(CCC3=CCCCC3)C2=O)CC1 5.62 µM [activator, single point]
COc1cccc(C(NC(C)=O)c2nc(-c3cccc(C(C)C)c3)cs2)c1 (stereo not given) 20 µM [activator, single point]
COc1ccccc1[C@H]1C(c2cccc(C)c2)=NN(c2ccccc2)[C@@H]1CO 22.4 µM [activator, single point]
C=CCN(CC=C)S(=O)(=O)c1ccc2nc(NC(=O)C3CCCO3)sc2c1 (stereo not given) 17.8 µM [activator, single point]
Cc1cccc(OCc2n[nH]c(=S)n2C2CCCCC2)c1 31.6 µM [activator, single point]
Cc1cc(F)ccc1C(O)c1ncc(-c2cccc(F)c2)[nH]1 (stereo not given) 31.6 µM [activator, single point]
Cc1nc2sc(C(c3cccs3)N3CCOCC3)c(O)n2n1 (stereo not given) 31.6 µM [activator, single point]
Cc1nc(-c2ccccc2)sc1CCNS(=O)(=O)c1ccccc1 14.1 µM [activator, single point]
O=C(CN1C(=O)C2(SCC(=O)N2c2cccc(Cl)c2)c2ccccc21)NCCc1ccccc1 (stereo not given) 5.62 µM [activator, single point]
CCOC(=O)c1csc(-c2csc(CCNC(=O)c3ccccc3)n2)n1 5.62 µM [activator, single point]
COc1ccc(/C=C/C(=O)OCC(=O)NCC2CCCO2)cc1 (stereo not given) 5.62 µM [activator, single point]
COc1ccc(CN2C(=O)CSCC2(C)C(=O)Nc2c(C)cccc2C)cc1 (stereo not given) 12.6 µM [activator, single point]
COC(=O)CCSc1cc(NCCCOC(C)=O)c([N+](=O)[O-])c2nonc12 20 µM [activator, single point]
CCNc1ccc(S(=O)(=O)N2CCOCC2)cc1NCC(=O)Nc1cccc(Br)c1 28.2 µM [activator, single point]
O=C(/C=C/c1cccc(OCc2ccccc2)c1)c1cccnc1 12.6 µM [activator, partial curve]
O=C(Oc1cccc2cccnc12)c1cccc(-n2cnnn2)c1 31.6 µM [activator, single point]
CCCn1c(NC(=O)c2ccccc2)nc2ccccc21 8.91 µM [activator, partial curve]
O=C(c1ccccc1)C1CC1c1ccccc1 (stereo not given) 0.562 µM [activator, full curve, poor fit]
CC(=O)c1cccc(-n2c(CCC(=O)O)ccc2-c2ccc(C)cc2)c1 35.5 µM [activator, single point]
CCOC(=O)C(NCCc1ccccc1)(NC(=O)CC)C(F)(F)F (stereo not given) 22.4 µM [activator, single point]
COc1ccc(/C=N/Nc2cc(C)nc(-n3nc(C)cc3C)n2)cc1 31.6 µM [activator, single point]
CCn1c(CCCOc2ccc(Cl)cc2Cl)n[nH]c1=S 35.5 µM [activator, single point]
COC(=O)Cc1csc(NCc2ccccc2)n1 5.62 µM [activator, single point]
Cc1ccc(OCCN2C(=O)c3ccccc3C2=O)c([N+](=O)[O-])c1 31.6 µM [activator, single point]

Potency, active:
CCn1c(-c2ccccc2)c(C(=O)CCl)c2ccccc21 11.2 µM
CCc1sc(C(=O)Nc2nc(-c3ccccn3)cs2)cc1C 4.47 µM
